{
  "source": "PubChem BioAssay AID651820",
  "about": "(National Center for Advancing Translational Sciences (NCATS), 2012)",
  "note": "In all, about 340,000 compounds went through this assay and about 12,000 (3.5%) were called active. The inconclusive results got no clear call from the source; some entries with a clear call stand among them for comparison. Calls follow the shape of the dose curve; as a rule, active = well fitted inhibition curve with a large enough effect; inconclusive = small, poorly fitted or top-dose-only effect, or another doubt; inactive = no such curve, though single readings can be large or run the other way. No potency is given beside an inconclusive call; the fits are too rough. % is scaled to controls: 0 for no effect and ±100 for the full control effect; potency is read from the fitted curve at half-maximal effect; tags tell the direction and shape of the fitted curve.",
  "data": [
    {"experiment": "qHTS Assay for Inhibitors of Hepatitis C Virus (HCV)", "conditions": "Huh7.5.1 HCVcc-Cre (HCVcc is cell-culture hepatitis C virus) infection, luciferase reporter, 44 h; activity change, negative = inhibition: at 41.8 µM (top of the series)", "outline": "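Cells (1,000/well) were plated 4 h before compound, then infected with HCVcc-Cre virus (~0.5 moi). After 44 h further culture, infection was read as luciferase luminescence following a 15 min substrate incubation at room temperature.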", "values": [
      {"smiles": "CCOc1ccc(C(=O)NC(=S)Nc2ccc(NC(=O)c3ccco3)c(C)c2)cc1[N+](=O)[O-]", "Potency": "inconclusive [inhibitor, partial curve]"},
      {"smiles": "CC(=O)N1c2ccc(S(=O)(=O)N(C)CC(=O)NC(C)c3ccccc3)cc2CC1C", "note": "(stereo not drawn)", "Potency": "inconclusive [inhibitor, single point]"},
      {"smiles": "Cc1cc(C)cc(NC(=S)N(CCN2CCCCC2)Cc2ccco2)c1", "Potency": "inconclusive [inhibitor, single point]"},
      {"smiles": "Cc1nc(N=C(N)N)nc2ccccc12", "Potency": "active: 14.1 µM"},
      {"smiles": "CC(=O)Nc1nc(NC(=O)/C=C/c2ccccc2)n(-c2ccccc2)n1", "Potency": "inconclusive [inhibitor, single point]"},
      {"smiles": "Cc1ccc(S(=O)(=O)Nc2ccccc2N=Cc2ccc([N+](=O)[O-])cc2[N+](=O)[O-])cc1", "Potency": "inconclusive [inhibitor, single point]"},
      {"smiles": "CCOC(=O)C1=CN(Cc2cccc(F)c2)S(=O)(=O)NC1c1ccccc1", "note": "(stereo not drawn)", "Potency": "inconclusive [inhibitor, partial curve, poor fit]"},
      {"smiles": "Cc1nnc(SCC(=O)N2CCC(C(=O)Nc3nccs3)CC2)n1Cc1ccccc1", "Potency": "inconclusive [inhibitor, single point]"},
      {"smiles": "Cn1c(-c2ccc(F)c(F)c2)cc2onc(-c3ccccc3)c2c1=O", "Potency": "inconclusive [inhibitor, single point]"},
      {"smiles": "COC(=O)C(O)(c1ccc(NC(=S)NC(=O)c2ccc(Cl)cc2Cl)cc1)C(F)(F)F", "note": "(stereo not drawn)", "Potency": "inconclusive [inhibitor, partial curve]"},
      {"smiles": "CCN(CC(O)COc1ccc(OCC(O)CN(CC)C2CCCCC2)cc1)C1CCCCC1", "note": "(stereo not drawn)", "Potency": "active: 5.01 µM"},
      {"smiles": "CC(=O)c1ccc(S(=O)(=O)N(C)CC(=O)Nc2cccc(S(=O)(=O)N3CCCC3)c2)cc1", "Potency": "inconclusive [inhibitor, partial curve, poor fit]"},
      {"smiles": "CN1CCC(NCCC(c2ccc(F)cc2)c2ccc(Cl)cc2)CC1", "note": "(stereo not drawn)", "Potency": "active: 2 µM"},
      {"smiles": "COc1cc(/C=N/n2cnnc2)ccc1OCc1ccc(C)cc1", "activity change, negative = inhibition": "inactive: 1.36%"},
      {"smiles": "C#CCOCCOCCOCCNc1nc(N2CCN(C(=O)CCCCCCCCCCNC(=O)[C@H](CO)n3cc(CCCCCN)nn3)CC2)nc(N2CCN(C(=O)CCCCCCCCCCNC(=O)[C@H](CCCN=C(N)N)n3cc(C[C@@H](C)CC)nn3)CC2)n1", "activity change, negative = inhibition": "inactive: -13.7%"},
      {"smiles": "COc1ccc(N(CC(=O)NCCSCc2ccc(C)cc2)S(=O)(=O)c2ccccc2)cc1", "Potency": "inconclusive [inhibitor, single point]"},
      {"smiles": "CCO[C@@H]1OC(C(=O)N2CCN(C)CC2)=C[C@H](c2coc3ccccc3c2=O)[C@H]1CCCO", "Potency": "inconclusive [inhibitor, single point]"},
      {"smiles": "COc1ccc2oc(C(=O)OCC(=O)NC(=O)NC(C)C)c(C)c2c1", "Potency": "inconclusive [inhibitor, single point]"},
      {"smiles": "CC1CCN(C(=O)c2cc(-c3ccc(Cl)c(Cl)c3)on2)CC1", "activity change, negative = inhibition": "inactive: 6.99%"},
      {"smiles": "CCCCN(C(=O)c1ccc([N+](=O)[O-])s1)c1c(N)n(CC(C)C)c(=O)[nH]c1=O", "activity change, negative = inhibition": "inactive: 1.86%"},
      {"smiles": "CCCc1cc(=O)oc2cc(C)c3c(C)coc3c12", "Potency": "active: 10 µM"},
      {"smiles": "CC(=O)Nc1nonc1-c1nc2ccccc2n1C", "Potency": "inconclusive [inhibitor, single point]"},
      {"smiles": "Cc1ccc2oc3nc(C)c(C(=O)Nc4cccc(C(F)(F)F)c4)cc3c(=O)c2c1", "Potency": "inconclusive [inhibitor, full curve, poor fit]"},
      {"smiles": "C[C@H](NC(=O)c1ccco1)C(=O)N1CCN(c2ccc(C(F)(F)F)cn2)CC1", "activity change, negative = inhibition": "inactive: -12%"},
      {"smiles": "Cc1cccc(OC(C)C(=O)N2CCN(Cc3ccc4c(c3)OCO4)CC2)c1", "note": "(stereo not drawn)", "activity change, negative = inhibition": "inactive: -0.926%"},
      {"smiles": "O=C(N/C(=C\\c1ccccc1)C(=O)N1CCOCC1)c1cccc(Br)c1", "Potency": "inconclusive [inhibitor, full curve, poor fit]"},
      {"smiles": "C=CCSc1nnc(-c2cc3c(-c4ccccc4)nn(C)c3s2)n1C", "Potency": "inconclusive [inhibitor, single point]"},
      {"smiles": "CCCc1noc2c1C(c1cc(Br)ccc1F)C(C#N)=C(N)N2", "note": "(stereo not drawn)", "Potency": "inconclusive [inhibitor, single point]"},
      {"smiles": "Cn1c(=O)c2c(nc(Cl)n2CC(=O)NC2(C#N)CCCCC2)n(C)c1=O", "activity change, negative = inhibition": "inactive: 4.83%"},
      {"smiles": "COc1ccc(C(=O)OCc2c(-c3cccc(OC)c3)ncc3ccccc23)cc1", "Potency": "inconclusive [inhibitor, partial curve]"},
      {"smiles": "COc1cc2ncc(S(=O)(=O)c3ccccc3)c(N3CCC4(CC3)OCCO4)c2cc1OC", "Potency": "inconclusive [inhibitor, single point]"},
      {"smiles": "COC(=O)c1c2c(nc3ccccc13)CCC2", "Potency": "inconclusive [inhibitor, single point]"},
      {"smiles": "O=C(NCC(=O)N(c1ccccc1F)C(C(=O)NC1CCCC1)c1ccncc1)c1ccco1", "note": "(stereo not drawn)", "Potency": "inconclusive [inhibitor, single point]"},
      {"smiles": "O=C(c1cc(COc2ccc(F)cc2F)on1)N1C[C@H]2CC[C@H]1C2", "activity change, negative = inhibition": "inactive: -27.4%"},
      {"smiles": "COc1cc2c(cc1OC)C(C)N(C(=O)c1cc3ccccc3o1)CC2", "note": "(stereo not drawn)", "Potency": "active: 10 µM"},
      {"smiles": "O=C(CC(O)(C(F)(F)F)C(F)(F)F)Nc1ccc(Cl)c(Cl)c1", "Potency": "active: 5.01 µM"},
      {"smiles": "COc1cc(NC(=S)NC(=O)c2cc(C)cc(C)c2)ccc1NC(=O)c1cccs1", "Potency": "inconclusive [inhibitor, partial curve]"},
      {"smiles": "O=C(Nc1ccc(N2CCOCC2)cc1)c1cccc(S(=O)(=O)N2CCCCCC2)c1", "Potency": "inconclusive [inhibitor, single point]"},
      {"smiles": "CN(C)c1ccc(-c2nc3cnccn3c2Nc2ccc3c(c2)OCCO3)cc1", "activity change, negative = inhibition": "inactive: -21.4%"},
      {"smiles": "COc1ccc2nc(C)cc(N/N=C/c3ccc(F)cc3)c2c1", "Potency": "inconclusive [inhibitor, single point]"},
      {"smiles": "COc1cc(NC(=O)Cc2cccs2)ccc1-n1cnnn1", "Potency": "inconclusive [inhibitor, partial curve, poor fit]"},
      {"smiles": "Cc1cccc(-c2nsc(SCC(=O)Nc3ccc4c(c3)OCO4)n2)c1", "activity change, negative = inhibition": "inactive: -26.2%"},
      {"smiles": "CCOC(=O)/C(=N\\Nc1ccccc1)c1csc(Nc2ccc(C)cc2)n1", "Potency": "inconclusive [inhibitor, partial curve, poor fit]"},
      {"smiles": "Cn1c(SCC(=O)c2ccccc2)nnc1-c1ccco1", "activity change, negative = inhibition": "inactive: -8.82%"},
      {"smiles": "CCc1ccc2oc(-c3cccc(NC(=O)c4cccnc4)c3)nc2c1", "Potency": "inconclusive [inhibitor, partial curve]"},
      {"smiles": "CCCCCCN(C(=O)CCCN1C(=O)NC(c2ccc([N+](=O)[O-])cc2)C(C(=O)OCc2ccccc2)=C1C)C(C)C(=O)NCCCC", "note": "(stereo not drawn)", "Potency": "inconclusive [inhibitor, partial curve]"},
      {"smiles": "C/C(=N/NS(=O)(=O)c1ccc(CC(C)C)cc1)c1ccncc1", "Potency": "inconclusive [inhibitor, single point]"},
      {"smiles": "COC(=O)[C@@]1(Cc2ccc(OC)cc2)[C@H]2c3cc(C(=O)N4CCCC4)n(CCc4c[nH]c5ccc(O)cc45)c3C[C@H]2CN1C(=O)c1ccccc1", "activity change, negative = inhibition": "inactive: 0.191% [at 8.37 µM]"},
      {"smiles": "CCCCCCNC(=O)N1C/C=C\\C(c2ccc(OC)cc2)N(Cc2ccc(F)cc2)C(=O)C1", "note": "(stereo not drawn)", "Potency": "inconclusive [inhibitor, single point]"},
      {"smiles": "O=C(Cn1ccc(NC(=O)OCc2ccccc2)nc1=O)NCCc1c[nH]c2ccccc12", "Potency": "active: 2.82 µM"},
      {"smiles": "Cc1ccc(-c2csc3ncnc(N4CCN(C(=O)c5ccccc5)CC4)c23)cc1", "Potency": "inconclusive [inhibitor, partial curve]"},
      {"smiles": "COc1ccc(C(=O)OCc2ccccc2F)cc1S(=O)(=O)N1CCCC1", "Potency": "inconclusive [inhibitor, full curve]"},
      {"smiles": "Cc1ccc(SCC(=O)c2c(C)nc3ccccn23)cc1", "Potency": "inconclusive [inhibitor, partial curve]"},
      {"smiles": "Fc1cccc(/C=N/NC(=S)Nc2ccccc2Cl)c1", "Potency": "inconclusive [inhibitor, single point]"},
      {"smiles": "CC(/C=C1\\SC(=O)N(CC(=O)Nc2cccc(O)c2)C1=O)=C\\c1ccccc1", "Potency": "inconclusive [inhibitor, partial curve, poor fit]"},
      {"smiles": "Cc1ccc2c(CC(=O)N(CC3CCCO3)c3c(N)n(Cc4ccccc4)c(=O)[nH]c3=O)coc2c1", "note": "(stereo not drawn)", "Potency": "inconclusive [inhibitor, single point]"},
      {"smiles": "CN(CC(=O)Nc1ccccc1Br)C(=O)c1cccc(S(=O)(=O)NCc2ccccc2)c1", "Potency": "inconclusive [inhibitor, single point]"},
      {"smiles": "Cn1nnc2cc(C(=O)Nc3ccc4ccccc4c3)ccc21", "Potency": "inconclusive [inhibitor, single point]"},
      {"smiles": "CCOc1cc2[nH]c(=O)n(CCCCC(=O)NCc3ccco3)c(=O)c2cc1OCC", "Potency": "inconclusive [inhibitor, single point]"},
      {"smiles": "Cc1ccc(SC(CC(=O)c2ccc(F)cc2)C(=O)O)cc1", "note": "(stereo not drawn)", "activity change, negative = inhibition": "inactive: 19.1%"},
      {"smiles": "c1ccc2c(c1)nc(Nc1ccc(N3CCCCC3)cc1)c1nncn12", "Potency": "inconclusive [inhibitor, single point]"},
      {"smiles": "Cc1ccc(S(=O)(=O)Nc2ccccc2N2CCOCC2)cc1", "Potency": "inconclusive [inhibitor, single point]"},
      {"smiles": "C[C@H](CO)N1C[C@H](C)[C@@H](CN(C)S(=O)(=O)c2ccccc2)Oc2ccc(NC(=O)Cn3cnnn3)cc2C1=O", "Potency": "inconclusive [inhibitor, partial curve]"}
    ]}
  ]
}
